According to PubChem BioAssay AID1745845 (National Center for Advancing Translational Sciences (NCATS), 2022):
Where “and” joins values, the source holds several entries; their conditions need not be identical. Identical values can stand only once. About 2,600 (0.72%) of roughly 360,000 compounds were called active. Inconclusive means that the source gave no clear call. Such entries were picked first, then a sample of the others. Calls come from the whole dose curve; as a rule, active = well fitted inhibition curve with a large enough effect; inconclusive = small, poorly fitted or top-dose-only effect; inactive = no such curve, though single readings can be large or run the other way. Potencies beside an inconclusive call are fits to weak or partial responses and may not hold up.

assay: Primary qHTS for Inhibitors of ATXN expression; conditions: HEK-293 ATXN2-luciferase reporter, luminescence, 24 h; series mostly up to 57 µM; note: nearly all actives have a fitted effect of over 55% in size
Method in brief: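 qHTS (up to 57 uM final) was run with 24 h compound exposure of reporter cells at 37 °C. Each well was multiplexed: SteadyGlo luminescence measured ATXN2-luciferase expression after a fluorogenic Gly-Phe-AFC viability readout (25 uM final).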
Potency is the fitted concentration of half-maximal effect; tags give direction and shape of the fitted curve.

SMILES	Potency
Cc1noc(C)c1COc1ccc(C(=O)N2CCC(C)CC2)cc1	inactive
COC(=O)c1cc(=O)n(-c2ccccc2)c(=Nc2ccccc2)s1	inconclusive: 29.9 µM [inhibitor, partial curve, poor fit]
CC1Cc2ccccc2N1C(=O)c1ccc(N2CCCC2)c([N+](=O)[O-])c1 (centres undefined)	inconclusive: 39.8 µM [inhibitor, single point]
CCC(=O)NC(=S)Nc1ccc(S(=O)(=O)N2CCN(C)CC2)cc1	inconclusive: 4.47 µM [inhibitor, single point]
C/C(=N\NC(=O)c1cc(-c2cccc([N+](=O)[O-])c2)n[nH]1)c1ccccc1O	inconclusive: 39.8 µM [inhibitor, single point]
Cc1cccc(Nc2nnc(SCC(=O)NC3CCCc4ccccc43)s2)c1C (centres undefined)	inactive
Cc1csc(NC(=O)c2sc3nc4c(c(C(F)(F)F)c3c2N)CCC4)n1	active: 0.0968 µM
O=C(O)c1cccc(N/N=C(\N=Nc2ccccc2)c2ccccc2)c1	inconclusive: 1.41 µM [inhibitor, partial curve, poor fit]
CN(C)CCNC(=O)C1CCN(Cc2cc3ccccc3n2Cc2ccccc2)CC1	active: 22.4 µM
NNC(=O)c1oc2nc(-c3ccc(Cl)cc3)cc(-c3ccccc3)c2c1N	inconclusive: 14.1 µM [inhibitor, partial curve, poor fit]
COc1ccc2oc(-c3ccc(NC(=O)c4ccc(N5CCOCC5)c([N+](=O)[O-])c4)cc3)nc2c1	inconclusive: 15.8 µM [inhibitor, partial curve, poor fit]
C=CCNC1=C2C[C@@H](C)C[C@H](OC)[C@@H](O)[C@@H](C)C=C(C)[C@H](OC(N)=O)[C@@H](OC)C=CC=C(C)C(=O)NC(=CC1=O)C2=O	active: 1.09 µM
CCc1nc2c(OCc3cc(Cl)cc(Cl)c3)cccn2c1N(C)C(=O)c1cccc(OC)c1	inconclusive: 28.2 µM [inhibitor, single point]
CCCOC(=O)c1c(NC(=O)C(C)Sc2nc(-c3ccccc3)cc(C(F)(F)F)n2)sc(C(=O)N(C)C)c1C (centres undefined)	inconclusive: 25.1 µM [inhibitor, partial curve, poor fit]
O=C1NC[C@H](Cc2ccccc2)N(C[C@@H]2CCCN2C[C@H](Cc2ccccc2)N2C[C@H](Cc3ccccc3)N(CCc3ccccc3)C(=O)C2=O)C1=O	inconclusive: 39.8 µM [inhibitor, single point]
NS(=O)(=O)c1ccc(CCNC(=O)CCCC2=NS(=O)(=O)c3ccccc3N2)cc1	inactive
Cc1ccc(S(=O)(=O)CNC(=S)c2cccc(Cl)c2)cc1	inconclusive: 7.08 µM [inhibitor, single point]
Cc1ncc(CO)c(/C=N/Nc2ccc(C(F)(F)F)cn2)c1O	active: 6.31 µM
FC(F)(F)c1cc(C(F)(F)F)c2ccc(N3CCN(c4ncccn4)CC3)nc2n1	inconclusive: 25.1 µM [inhibitor, partial curve, poor fit]
Cc1ccc(NC(=O)CNC(=O)c2cccc(Cl)c2)nc1	inconclusive: 31.6 µM [inhibitor, single point]
CCOc1ccccc1CNCc1cccn1-c1nnc(N2CCN(c3ccccc3)CC2)s1	active: 17.8 µM
Cc1ccc2nc(NC(=O)CSc3nc4c(c(=O)n3C)SC(C)C4)sc2c1 (centres undefined)	inconclusive: 39.8 µM [inhibitor, partial curve, poor fit]

SMILES	Potency
Cc1c(Cl)cccc1-n1ncc(C(=O)Nc2ccc(Br)cc2F)c1C1CCNCC1	inconclusive: 28.2 µM [inhibitor, single point]
O=C(Nc1ccccc1Cl)c1ccc(Cl)cc1Cl	inactive
Nn1cnnc1N/N=C/c1cc(Br)cc(Br)c1O	inconclusive: 20 µM [inhibitor, partial curve, poor fit]
COC(=O)/C(C#N)=C/c1c(N2CCN(c3cccc(Cl)c3)CC2)nc2c(C)cccn2c1=O	inactive
CC(C)(C)NC(=O)NC(=O)CSc1cccc(C(F)(F)F)c1	inconclusive: 8.44 µM [inhibitor, single point]
C=CCc1cccc(/C=N/NC(=O)C(=O)Nc2ccc(C)cc2)c1O	inactive
CCn1cc(CN2CCCC(C(=O)Nc3cccc(-c4cc5ccccc5[nH]4)c3)C2)cn1 (centres undefined)	inconclusive: 20 µM [inhibitor, partial curve, poor fit]
Cc1cc(C)cc(-n2c(C)cc(C(=S)N3CCOCC3)c2C)c1	inactive
Cc1ccc(C)c(NC(=S)NCc2ccc3[nH]c4c(c3c2)CCCC4)c1	inconclusive: 18.9 µM [inhibitor, partial curve, poor fit]
CC(C)C[C@@H](CN1CCC[C@@H]1CN1C(=S)NC[C@@H]1Cc1ccc(O)cc1)N1C[C@H](Cc2ccccc2)N(CCc2ccccc2)C1=S	inconclusive: 39.8 µM [inhibitor, partial curve, poor fit]
COc1ccccc1NC(=O)CN1CCN(c2ccc(Cl)cc2)CC1	inactive
COc1ccc(/C=C\C(=O)NCC(=O)N/N=C/c2cccc(OC)c2O)cc1	inconclusive: 2.24 µM [inhibitor, partial curve, poor fit]
CCc1ccc(NC(=O)CCn2c(=O)c3cccn3c3ccccc32)cc1	inactive
CC(NC(=O)c1noc2c1CCCC2)c1ccccc1 (centres undefined)	inactive
Oc1[nH]c2ccccc2c1N=Nc1ccccc1	inactive
C=C1C(=O)[C@]23C[C@H]1CC[C@H]2[C@]1(C)[C@@H](O)CC[C@@](C)(C(=O)O)[C@H]1C[C@@H]3O	inconclusive: 28.2 µM [inhibitor, single point]
CCN(CC)S(=O)(=O)c1cccc(C(=O)NCC2CCCCC2)c1	inactive
O=C(CN(C(=O)c1csnn1)c1ccccc1C(F)(F)F)NCc1ccccc1	inactive
COc1ccccc1CNC(=O)c1cc2sccc2n1Cc1ccc(Cl)cc1	inactive
COc1ccc(-c2ccc3c(c2)S(=O)(=O)c2cccc(C(=O)NCCOc4ccccc4)c2C3=O)cc1OC	inconclusive: 25.1 µM [inhibitor, partial curve, poor fit]
CCN1CCN(CCNC(=O)c2ccc3c(c2)N(Cc2cccc(Cl)c2)C(=O)c2ccccc2S3=O)CC1 (centres undefined)	inconclusive: 31.6 µM [inhibitor, partial curve, poor fit]
CC1(C(=O)NCc2ccccc2Br)CCN1Cc1csc2ccccc12 (centres undefined)	inconclusive: 17.8 µM [inhibitor, partial curve, poor fit]

SMILES	Potency
O=C(Nc1ccc(S(=O)(=O)N2CCCCC2c2cccnc2)cc1)c1ccc(Br)cc1 (centres undefined)	active: 14.1 µM
Cn1c(SCc2cc(=O)[nH]c3ccccc23)nnc1-c1ccc(Br)cc1	inconclusive: 28.2 µM [inhibitor, partial curve, poor fit]
CCN(CC)CCCNC(=O)c1ccc2c3n(nc2c1)-c1ccc(Cl)cc1CO3	inconclusive: 39.8 µM [inhibitor, single point]
CC(C)(O)Cn1c(NC(=O)c2ccc(-c3cn[nH]c3)s2)nc2cc(CN3CCOCC3)ccc21	active: 6.11 µM
O=C(CCN1CCOCC1)c1ccc(N2CCCCC2)cc1	inconclusive: 10 µM [inhibitor, partial curve, poor fit]
CCc1nc2ccc(C(=O)N(C)CCCN(C)C)cn2c1N(C)Cc1cc2ccccc2s1	inconclusive: 22.4 µM [inhibitor, single point]
CN1CCN(/N=C/c2ccc(N(c3ccccc3)c3ccccc3)cc2)CC1	active: 0.844 µM
COc1ccc(S(=O)(=O)Nc2ccc(Cc3ccncc3)cc2)cc1C	inactive
Cc1cc(N2CCN(c3nc4ccccc4s3)CC2)n2ncnc2n1	inconclusive: 7.94 µM [inhibitor, partial curve]
COc1ccc(C(=O)C2CCCN(Cc3cnc(N4CCOCC4)s3)C2)cc1F (centres undefined)	inconclusive: 10 µM [inhibitor, partial curve, poor fit]
O=C(/C=C\c1ccccc1)Nc1nccs1	inactive
O=c1c([N+](=O)[O-])cccn1Cc1ccccc1Cl	inconclusive: 0.501 µM [inhibitor, full curve, poor fit]
CCC(=O)N1CCc2cc(S(=O)(=O)CCC(=O)N3CCN(c4ccc(Cl)cc4)CC3)ccc21	inconclusive: 17.8 µM [inhibitor, single point] and inconclusive: 28.2 µM [inhibitor, partial curve]
O=C(Nc1nc(-c2ccncc2)cs1)C1c2ccccc2Oc2ccccc21	inconclusive: 31.6 µM [inhibitor, partial curve, poor fit]
COc1ccc(NC(=O)c2c(NCc3sccc3C)sc3c2CCCC3)c(OC)c1	inconclusive: 39.8 µM [inhibitor, single point]
COc1ccc(OC)c(-c2nnc3n2N=C(c2ccc(OC)c(OC4CCCC4)c2)CS3)c1	inconclusive: 17.8 µM [inhibitor, partial curve]
CCCn1c(=O)sc2cc(NC(=O)c3ccc(OC)c(Br)c3)ccc21	inconclusive: 14.1 µM [inhibitor, partial curve]
CCOc1ccc(NC(=O)c2c(NC(=O)CNCCN3CCOCC3)sc3c2CCC3)cc1	inconclusive: 8.91 µM [inhibitor, full curve]
COc1cccc(C(C)NC(=S)NCc2ccc(F)cc2)c1 (centres undefined)	inconclusive: 25.1 µM [inhibitor, single point]
O=C(CSc1nc2c(sc3ccccc32)c(=O)n1CCCN1CCCC1)NCc1ccccc1	inconclusive: 15 µM [inhibitor, single point]
